± gives the standard deviation of the averaged measurements. The list shows a part of the results.

The test system of this assay is PfAP2-I AP2 domain 3 (GST-tagged). Briefly: gcPBM binding intensity (ln(normalized median fluorescence intensity)); higher = stronger DNA binding. In a few lines: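 DNA-binding domains from P. falciparum, fused to GST and produced in E. coli, were put on an Agilent 4 × 180k double-stranded probe array for 1 h in 1× PBS holding 1% milk, 0.2 mg/ml BSA, 0.5% salmon testes DNA and 0.03% Triton X-100. Probes were primer-extended, 36 bp long and drawn from intergenic genomic regions, with negative controls included. After Alexa488 anti-GST antibody detection and a 488 nm scan, binding intensity was set as the highest Masliner-normalised natural-log median intensity across replicate spots of either probe orientation.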
In the case of “TGATATTATATATATACACACATGTATGTATTTATA [CACACA_site4874]”, the “gcPBM binding intensity (ln)” value was 7.38 ± 0.45. The result for “GTATCAAAAGAATACACACACACATACAGATATATA [CACACA_site5975]” reads 7.83 ± 0.38; that for “ATAAACAAACATAAATCTGATTTTAATTTTTTTAAG [CACACA_negctrl_site313]”, 7.21 ± 0.45. As to “ATATATATATTGAAAAGTACATATATATATATATTA [XGTACX_site1560]”, the “gcPBM binding intensity (ln)” value is 8.795 ± 0.021.

Turning to “TGGATAATCAAAAATTGTACAAGTGTTGTTATTGGT [XGTACX_site8010]”, the “gcPBM binding intensity (ln)” value was 7.93 ± 0.45.

In the case of “ACCGGTGGAACGTTTTGTACATATATAATAATATAT [XGTACX_site2143]”, the “gcPBM binding intensity (ln)” value amounted to 7.75 ± 0.5.

Regarding “CTTGGGAAGTATTCAGTGCAAAATATAAGCAGGTCA [GTGCAC_site9758]”, the “gcPBM binding intensity (ln)” value came to 10.5 ± 0.11. The figure for “AAAAGAAATAAGGATACACACTATTGATAAAAGTAG [CACACA_site4309]” is 7.92 ± 0.59; for “TATTACAAATAATACCGTACACAAATGTTTTTTTAT [XGTACX_site7977]” it is 7.7 ± 0.52; for “TCGTGGGAAAATATTACACACATTTACTATAGTATC [CACACA_site5836]” it is 8.05 ± 0.6. With “TATATATTAATCAAAGTGCAATAATAAAATAAAAGT [GTGCAC_site9490]”, the “gcPBM binding intensity (ln)” value turned out to be 10.8 ± 0.34. For “CTCTAATTAATATTTGTACACACATATTTAACCTAC [CACACA_site9043]”, the “gcPBM binding intensity (ln)” value worked out at 8.06 ± 0.46. In the case of “TAACTTTATTTTCCTGTACACACATTTGACATATTA [CACACA_site9116]”, the “gcPBM binding intensity (ln)” value turned out to be 8.21 ± 0.59. In the case of “TCAAATTACGTAAGAACATGCGATATAAGAAATACG [TGCATGCA_site691]”, the “gcPBM binding intensity (ln)” value was 8.07 ± 0.61.

In the case of “AGCAGACACCAACACACACACATATATATATATATA [CACACA_site337]”, the “gcPBM binding intensity (ln)” value amounted to 9.45 ± 0.3. The result for “TTTATACAAAAGAACAGTACAATAAAGGATTTATGA [XGTACX_site811]” reads 7.69 ± 0.58; that for “CATATTCCCCCCCACACACACACACGCATACATACC [CACACA_site7148]”, 10.8 ± 0.33; that for “ATATAAAAAATATAAGGTACACATATATGTAGATAT [XGTACX_site6792]”, 8.03 ± 0.64.

Regarding “TAAATAAAATACAAATGTACATAAATAATAAATATA [XGTACX_site1813]”, the “gcPBM binding intensity (ln)” value was 7.79 ± 0.47. The result for “AATTATTTTAAATATTGTACTATTACAGAATGGTGT [XGTACX_site5693]” reads 8.04 ± 0.52; that for “CTTTTTTATTTTTCAACACACATAATAAATTTCTAT [CACACA_site1037]”, 7.97 ± 0.6; that for “GGTTAAAAAAAGCATACACACTATCCTCTTTGCTCT [CACACA_site7246]”, 7.9 ± 0.65. The result for “ATATTTTACAAATGCACACATAATTTTTTTTTTTTT [CACACA_site2763]” reads 9.33 ± 0.099; that for “GAACCTTTAAAATACACACCCAAATCCTTTGAAATA [CACACA_site3630]”, 7.78 ± 0.61. The result for “TACATAAATACATACATACACACATATATATATATA [CACACA_site2105]” reads 9.21 ± 0.69; that for “TTTTTTTTTATATATACACACAATAAATAAATATAA [CACACA_site2954]”, 7.9 ± 0.33.

Consider “AAATTAAACAATAAATGTACATATATATTTGTATAT [XGTACX_site1092]”, for which the “gcPBM binding intensity (ln)” value was 7.68 ± 0.38.

With “ATAAAAAATAAATAAGGTACAGAACATTTATACATT [XGTACX_site1783]”, the “gcPBM binding intensity (ln)” value came out at 7.88 ± 0.55.

As for “AACAAGGTATTAGGGTGTACTATATATATTTATATT [XGTACX_site7776]”, the “gcPBM binding intensity (ln)” value turned out to be 8.26 ± 0.3. The result for “TAAAGGAGCCTATGAACACACACATGTACTTATATT [CACACA_site9351]” reads 7.67 ± 0.59; that for “AATTGTTTGTTTGGGTGTACATGGTTCTATATAAAT [XGTACX_site7940]”, 8.52 ± 0.2; that for “AATAAAATATAAACATTATATATATATATATATATA [GTGCAC_negctrl_site58]”, 9.24 ± 0.69.

As for “ATTTTTTCTTTTTTTTTTCCGTTTTTTTGGACATTT [CACACA_negctrl_site1174]”, the “gcPBM binding intensity (ln)” value is 7.58 ± 0.68.

Regarding “ATTAAAATGGTATGTGCGCACATAATATATATATGT [GTGCAC_site9572]”, the “gcPBM binding intensity (ln)” value was 9.16 ± 0.49. The figure for “ACATTGACATGTCGAAGTACTCAAGAAGCATACAAT [XGTACX_site3948]” is 7.72 ± 0.65; for “ATATAAATGATATGTACACACATTTATATTTATAAA [CACACA_site7600]” it is 7.75 ± 0.26. The figure for “ACTCTATACATCTAATGTACATGGAAAAAAAAATTC [XGTACX_site733]” is 8.07 ± 0.42.

As to “TGGAAAATTATTAACACACACATATAAATATATATA [CACACA_site46]”, the “gcPBM binding intensity (ln)” value was found to be 8 ± 0.69. The result for “TTCTTACATAAAATATCACACACATAAAAAAACAAT [CACACA_site8576]” reads 8.06 ± 0.35; that for GTAATAAGAATTATAGTGCAATGTAATACATTTATA, 9.255 ± 0.007; that for “AATACAACATAATGAAGTACTGTATTTTATATTACT [XGTACX_site4885]”, 7.52 ± 0.42. Turning to “TAATTTGAACGGTACAGTACTCTTTTTCTTTTTCAT [XGTACX_site5534]”, the “gcPBM binding intensity (ln)” value stood at 7.48 ± 0.55. The result for “ATATATTTTTTCAATTGTACGTTTTAATAATATTTA [XGTACX_site2130]” reads 7.94 ± 0.52; that for “ATGAAATCTTTAGAATATAGATGATGTTATTTAATT [XGTACX_negctrl_site511]”, 7.33 ± 0.54.
